From the RNAGym collection of RNA variant scans (doi:10.7554/elife.90254) come the findings set out here.

First the molecules themselves.
B1: LINE1-full (parent)
chain: UACGUAGGUGGUUUUCCCCUGAUAGUGCUAAGGGGGCCUGGAAGUUUGGACUGGGCAGAGCUCAACACAGCGUGGCAAAGUGGCUGUGGCUAGACUGCCUCUCUGGAUUCCUCGUCACUCAGCAGGGCAUCUCUGAGAGAAAUGCC

Read counts are not given, so values of variants with three or more changes are uncertain.

Variants of B1 are the subject of this data set. Briefly: self-cleavage, relative activity (ratio to wild type); higher = more cleavage; in vitro, sequencing; the parent is a self-cleaving ribozyme.
As for UACGUAGGUGGUUUUCCCCUGAUAGUGCUAAGGGGGCCUGGAAGUUAGGACUGGGCAGAGCUCAUCACAGCGUGGCAAAGUGGCUGUGGCUAGACUGCCUCUCUGGAUUCCUCGUCACUCAGCAGGGCAUCUCUGAAAGAAAUGCC [U47A A65U G137A], the self-cleavage came to 0.15. The same measure for UACGUAGGUGGUUUUCCCCUGAUAGUGCUAAGGGGGCCUGGAAGUUAGGACUGGGCAGAGCUCAACACAGCGUGCCAAAGUGGCUGUGGCUAGACUGCCUCUCUGGAUUCCUCAUCACUCAGCAGGGCAUCUCUGAGAGAAAUGCC [U47A G75C G114A]: 0.35. With UACGUAGGUGGUUUUCCCCUGAUAGUGCUAAGGGGGCCUGGAAGUUAGGACUGGGCAGAGCUCAACACAGCGUGGCAAAGAGGCUGUGGCUAGACUGCCUCUCUGGAUUCCUCGUCACUCGGCAGGGCAUCUCUGAGAGAAAAGCC [U47A U81A A121G U143A], the self-cleavage was 1.9. With UACGUAGGUGGUUUUCCCCUGAUAGUGCUAAGGGGGCCUGGAAGUUAGGACUGGGCAGAGCUCAACACAGCGCGGCAAAGUGGCUGUGGCUAGACUGCCUCUCUGGAUUCCUCGUCACUCAGCUGGGCAUCUCUGAGAGAAAUGCC [U47A U73C A124U], the self-cleavage is 1.2. Next, UACGUAGGUGGUUUUCCCCUGAUAGUGCUAAGGGGGCCUGGAAGUUAGGACUGGGCAGAGCUCAACACAGCGUGGCAAAGUGGCUGUGGCUAGACCGCCUCUCUGGAUUCCUCGUCACUCAGCAGGGCAUCUCCGAGAGAAAAGCC [U47A U96C U134C U143A]: 0.19; UACGUAGGUGGUUUUCCCCUGAUAGUGCUAAGGGGGCCUGGAAGUUAGGACCGGGCAGAGCUCAACACAGCGUGGCAUAGUGGCUGUGGCUAGACUGCCUCUCCGGAUUCCUUGUCACUCAGCAGGGCAUCUCUGAGAGAAAUGCC [U47A U52C A78U U104C C113U]: 1.47; UACGUAGGUGGUUUUCCCCUGAUAGUGCUAAGGGGGCCUGGAAGUUAGGACUGGGCAGAGCCCAACACAGCGUGGCAAAGUGGCUGUGGCUAGACUGCCUCUCUGGAUUCCUCGUCACUCAGCAGGGCAUCCCUGAGAGAAAUGCC [U47A U62C U132C]: 0.03. As for UACGUAGGUGGUUUUCCCCUGAUAGUGCUAAGGGGGCCUGGAAGUUAGGACUGGGCAGAGCUCAACACAGCGCGGCAAAGUGGCUGUGGCUAGACUGCCUCUCUGGAUACCUCGUCACUCAGCAGGGCAUCUCUGAGAUAAAUGCC [U47A U73C U109A G139U], the self-cleavage was 1.31.

As to UACGUAGGUGGUUUUCCCCUGAUAGUGCUAAGGGGGCCUGGAAGUUAGGACUGGGCAGAGCUCGACACAGCGUGGCAAAGUGGCUGUGGCUAGACUGCCUCUCUGGAUUCCUCGUCACGCAGCAGGGCAUCUCUGAGAGAAAUGCC [U47A A64G U119G], the self-cleavage was 0.25. As to UACGUAGGUGGUUUUCCCCUGAUAGUGCUAAGGGGGCCUGGAAGUUAGGACUGGGCAGAGCUCAACACAGCGUGGCAAAGUGGCUGUGGCUAGACUGCCUCUCUGGAUUCCUCGUCACUCAUCAGGGUAUCUCUGAGGGAAAUGCC [U47A G122U C128U A138G], the self-cleavage stood at 1.1. The same measure for UACGUAGGUGGUUUUCCCCUGAUAGUGCUAAGGGGGCCUGGAAGUUAGGACAGGGCAGAGCUCAACACAGCGUGGCAAAGUGGCUGUGGCUAGACUGCCUCUCUGGAUUCCUCGUCACUCAGCAGGGCAUCUCUGAGAGGAAUGCC [U47A U52A A140G]: 0.93; for UACGUAGGUGGUUUUCCCCUGAUAGUGCUAAGGGGGCCUGGAAGUUAGGACUGGGCAGAGCACAACACAGCGAGGCAAAGUGGCUGAGGCUAGACUGCCUCUCUGGAUUCCUCGUCACCCAGCAGGGCAUCUCUGAGAGAAAUGCC [U47A U62A U73A U87A U119C]: 0.03; for UACGUAGGUGGUUUUCCCCUGAUAGUGCUAAGGGGGCCUGGAAGUUAGGACUGGGCAGAGCUCAACACAGCGUGGCAAAGUGGCUGUGGCUAGACUGCCUCUCUGGAUUCCUCGUCACUCAGCAGGGCAUCUCUGAGAGGUAUGCC [U47A A140G A141U]: 0.77. UACGUAGGUGGUUUUCCCCUGAUAGUGCUAAGGGGGCCUGGAAGUUAGGACUGGGCAUAGCUCAACACUGCGUGGCAAAGUGGCUGUGGCUAGACUGCCUCUCUGGAUUCCUCGUCACUCAGCAGGGCACCUCUGAGAGAAAUGCC [U47A G58U A69U U130C]: the self-cleavage came out at 0.03.

Regarding UACGUAGGUGGUUUUCCCCUGAUAGUGCUAAGGGGGCCUGGAAGUUAGGACUGGGCAGAGCCCAACACAGCGAGGCUAAGUGGCUGUGGCUAGACUGCCUCUCUGGAUUCCUCGUCACUCAGCAGGGCAUCUCUGAGAGAAGUGCC [U47A U62C U73A A77U A142G], the self-cleavage turned out to be 0.03. Regarding UACGUAGGUGGUUUUCCCCUGAUAGUGCUAAGGGGGCCUGGAAGUUAGGACUGGGCAGAGCUCAACACAGCGUGGCAAAGUGGCUGUGGCUAGGCUGCCUCUCCGGAUUCCUCGUCACUCAGCAGGGCAUCUCUGAGAGAAAUGCC [U47A A94G U104C], the self-cleavage was found to be 0.08. With UACGUAGGUGGUUUUCCCCUGAUAGUGCUAAGGGGGCCUGGAAGUUAGGACUGGGCAGAGCUCAACACAGCGCGGCAAAGCGGCUGUGGCUAGACUGCCUCUCUGGAUUCCUCGUCACUCAGCAGGGCAUCUCUGAGAGAAAUGCC [U47A U73C U81C], the self-cleavage is 1.41. The same measure for UACGUAGGUGGUUUUCCCCUGAUAGUGCUAAGGGGGCCUGGAAGUUAGGACUGGGCAGAGCCCUACACAGCGUGGCAAAGUGGCUGUGGCUAGACUGCCCCUCUGGAUUCCUCGUCACUCAGCAGGGCAUCUCUGAGAGAAAUGCC [U47A U62C A64U U100C]: 0.04; for UACGUAGGUGGUUUUCCCCUGAUAGUGCUAAGGGGGCCUGGAAGUUAGGACUGGGCUGAGCUCUACACAGCGUGGCAAAGUGGCUGUGGCUAGACUGCCUCUCUGGAUUCCUCGUCACUCAGCAGGGCAUCUCUGAGAGAAAUGCC [U47A A57U A64U]: 0.04; for UACGUAGGUGGUUUUCCCCUGAUAGUGCUAAGGGGGCCUGGAAGUUAGGACUGGGCAGAGCUCAACACAGCGUGGCAAAGUGGCUGCGACUAGACUGCCUCUCUGGAUUCCUCGUCACUCAGCAGGGCAUCUCUGAGAGAAAUGCC [U47A U87C G89A]: 0.01. Regarding UACGUAGGUGGUUUUCCCCUGAUAGUGCUAAGGGGGCCUGGAAGUUAGGACUGGGCAGAGCUCAACACAGCGUGGCAAAGUGGCCGUGGCUAGACUGCCUCUCUGGAUUCCUCGUCACUCAGCAGGGCAUCCCUGAGAGAAAUGCC [U47A U85C U132C], the self-cleavage was found to be 0.21. Consider UACGUAGGUGGUUUUCCCCUGAUAGUGCUAAGGGGGCCUGGAAGUUAGGACUGGGCAGAGCUCAACACAGCGUGGCAAGGUGGCUGUGGCUAGACUGCCUCUCUGGAUUCCUCGUCACUCAGCAGGGCAUCUUUGAGAGAAAUGCC [U47A A79G C133U], for which the self-cleavage worked out at 2.07. Next, UACGUAGGUGGUUUUCCCCUGAUAGUGCUAAGGGGGCCUGGAAGUUAGGACUGGGCAGAGCUCAACACAGCGUGGCAAAGUGGCUGAGGCUAGACUGCCUCUCAGGACUCCUCGUCACUCAGCAGGGCAUCUCUGAGAGAAAUGCC [U47A U87A U104A U108C]: 0; UACGUAGGUGGUUUUCCCCUGAUAGUGCUAAGGGGGCCUGGAAGUUAGGACUGGGCAGAGCCCAACACAGCGUGGCAAAGUGGCUGUGGCUGGACUGCCUCUCUGGAUUCCUCGUCACUCUGCAGGGCAUCUCUGAGAGAAAUGCC [U47A U62C A92G A121U]: 0.02; UACGUAGGUGGUUUUCCCCUGAUAGUGCUAAGGGGGCCUGGAAGUUAGGACUGGGCAGAGCUCUACACAGCGUGGCAAAGUGGCUGUGGCUAGACUGCCUCUCUGGAUUCCUCGUCACUCAGCAGGGAAUCUCUGAGAGAAAUGCC [U47A A64U C128A]: 0.15. Consider UACGUAGGUGGUUUUCCCCUGAUAGUGCUAAGGGGGCCUGGAAGUUAGGACUGGGCAGAGCUCGACACAGCGUGGCAAAGUGGCUGUAGCUAGACUGCCUCUCUGGAUUCCUCGUCACUCAGCAGGGCAUCUCUGAGAGAAAUGCC [U47A A64G G88A], for which the self-cleavage came out at 0.05. UACGUAGGUGGUUUUCCCCUGAUAGUGCUAAGGGGGCCUGGAAGUUAGGACUGGGCAGAGCUCAACACAGCGUGGCAAAGUGGCUGUGGCUAGACUGCCACUCUGGAUUCCUCGUCACUCGGCAGGGCAUCUCUGAGAGAAAUGCC [U47A U100A A121G]: the self-cleavage came out at 0.57.

As for UACGUAGGUGGUUUUCCCCUGAUAGUGCUAAGGGGGCCUGGAAGUUAGGACUGGGCAGAGCUCAUCACAGCGUGGCAAAGUGGCUGUGGCUAGACUGCCUCUCUGGAUUCCUCGUCACUCAGCAGGGCAUCUCUGAGAGAAACGCC [U47A A65U U143C], the self-cleavage was found to be 0. The same measure for UACGUAGGUGGUUUUCCCCUGAUAGUGCUAAGGGGGCCUGGAAGUUAGGACUGGGCAGGGCUCAACACAGCGUGGCAAAGUGGCUGUGGCUAGACUGCCUCUCUGGAUUCCUCGUCACCCAGCAGGGCAUCUCUGAGAGAAAUGCC [U47A A59G U119C]: 0.13; for UACGUAGGUGGUUUUCCCCUGAUAGUGCUAAGGGGGCCUGGAAGUUAGGACUGGGCAGAGCUCAACACAGCGUGGCAAAGUGGCCGUGGCUAGACUGCCUCUCUGGAUUCCUCGUCACUCAGCAGGGCGUCUCUGGGAGAUAUGCC [U47A U85C A129G A136G A141U]: 0; for UACGUAGGUGGUUUUCCCCUGAUAGUGCUAAGGGGGCCUGGAAGUUAGGACUGGGCAGAGCCCAACACAGCGUGGCAAAGUGGCUGUGGCUAGAUUGCCUCUCUGGAUUCCCCGUCACUCUGCAGAGCAUCUCUGAGGGAAAUGCC [U47A U62C C95U U112C A121U G126A A138G]: 0.01.

With UACGUAGGUGGUUUUCCCCUGAUAGUGCUAAGGGGGCCUGGAAGUUAGGACAGGGCAGAGCUCAACACAGCGUGGCAAAGUGGCUGUGGCUAGACUGCCACUCUGGAUUCCCCGUCACUCAGCAGGGCAUCUCUGAGAGGAACGCC [U47A U52A U100A U112C A140G U143C], the self-cleavage came out at 1.91. Next, UACGUAGGUGGUUUUCCCCUGAUAGUGCUAAGGGGGCCUGGAAGUUAGGACUGGGCAGAGCUCAACACAGCGCGGCAAAGUGGCUGUGGCUAGACUCCCUCUCUGGAUUCCUCGUCACUCAGCAGGGCAUCUCAGAGAGAAAUGCC [U47A U73C G97C U134A]: 0.18.

As to UACGUAGGUGGUUUUCCCCUGAUAGUGCUAAGGGGGCCUGGAAGUUAGGACUGGGCAGAGCUCAACACAGCGUGGCAGAGUGGCUGUGGCUAGACUGCCUCUCUGGAUUCCUCGUCACUCAGCAGGGCAUCACUGAGAGAAAUGCC [U47A A78G U132A], the self-cleavage was 1.17. Turning to UACGUAGGUGGUUUUCCCCUGAUAGUGCUAAGGGGGCCUGGAAGUUAGGACUGGGCAGAGCUCGACACAGCGUGGCAAAGUGGCUGUGGCCAGACUGCCUCUCUGGAUUCCUCGUCACUCAGCAGGGCAUCUCUGAGGGAAAUGCC [U47A A64G U91C A138G], the self-cleavage was determined as 0.13. For the variant UACGUAGGUGGUUUUCCCCUGAUAGUGCUAAGGGGGCCUGGAAGUUAGGACUGGGCAGAGCUCAACACAGCGUGGCAACGUGGCUGCGGCUAGACUGCCUCUCUGGAUUCCUCGUCACUCAGCAGGGCGUCUCUGAGAGAGAUGCC [U47A A79C U87C A129G A141G], the self-cleavage is 0. For the variant UACGUAGGUGGUUUUCCCCUGAUAGUGCUAAGGGGGCCUGGAAGUUAGGACUGGGCAGAGCUCAACACAGCGUGGCAAAGUGGCUGUGGCUAGACUGCCUCUCUGGAUUCCUCGUUACUCAGCAGGGCAUCUCUGAGGGAAAUGCC [U47A C116U A138G], the self-cleavage came out at 2.3.

With UACGUAGGUGGUUUUCCCCUGAUAGUGCUAAGGGGGCCUGGAAGUUAGGACUGGGCAGAGCUCUACACAGCGUGGCAAAGCGGCUGUGGCUAGACUGCCUCUCUGGAUUCCUCGUCACUCAGCAGGGCAUACCUGAGAGAAAUGCC [U47A A64U U81C C131A U132C], the self-cleavage was found to be 0.45. The same measure for UACGUAGGUGGUUUUCCCCUGAUAGUGCUAAGGGGGCCUGGAAGUUAGGACUGGGCGGAGCUCAACACAGCGUGGCAAAGUGGCUGUGCCUAGACUGCCUCUCUGGAUUCCUCGUCACUCAGCAGGGCAUCUCUGAGAGAAAUGCC [U47A A57G G89C]: 0.06.
